Source: the supplement of paper PMC8728848
This is one part of the list.

What was measured:
Assay in all cases: glycan array binding signal (z-score within array); higher = stronger binding
Conditions in all cases: glycan notation: IUPAC condensed, linker removed
Fuc(a1-2)Gal = biological target: Fuc(a1-2)Gal
Summary of the method: (§1)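 Glycan array data were curated from 3228 arrays in the Consortium for Functional Glycomics database and kept only where the protein sequence was available. Glycan names were converted to IUPAC-condensed notation, and columns mapping to the same glycan were averaged. The binding signal is a within-array Z-score, averaged across arrays of the same protein sequence at different concentrations or buffers and across linkers. Negative Z-scores can be read as non-binding.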

Fuc(a1-2)Gal(b1-3)GalNAc = biological target: Fuc(a1-2)Gal(b1-3)GalNAc
Summary of the method: as §1

[1] = biological target: Fuc(a1-2)Gal(b1-3)GalNAc(a1-3)[Fuc(a1-2)]Gal(b1-4)Glc
Summary of the method: as §1

[2] = biological target: Fuc(a1-2)Gal(b1-3)GalNAc(a1-3)[Fuc(a1-2)]Gal(b1-4)GlcNAc
Summary of the method: as §1

[3] = biological target: Fuc(a1-2)Gal(b1-3)GalNAc(b1-3)Gal
Summary of the method: as §1

[4] = biological target: Fuc(a1-2)Gal(b1-3)GalNAc(b1-3)Gal(a1-4)Gal(b1-4)Glc
Summary of the method: as §1

[5] = biological target: Fuc(a1-2)Gal(b1-3)GalNAc(b1-4)[Neu5Ac(a2-3)]Gal(b1-4)Glc
Summary of the method: as §1

Fuc(a1-2)Gal(b1-3)GlcNAc = biological target: Fuc(a1-2)Gal(b1-3)GlcNAc
Summary of the method: as §1

[6] = biological target: Fuc(a1-2)Gal(b1-3)GlcNAc(b1-2)Man(a1-3)[Fuc(a1-2)Gal(b1-3)GlcNAc(b1-2)Man(a1-6)]Man(b1-4)GlcNAc(b1-4)GlcNAc
Summary of the method: as §1

[7] = biological target: Fuc(a1-2)Gal(b1-3)GlcNAc(b1-2)Man(a1-3)[Fuc(a1-2)Gal(b1-3)GlcNAc(b1-2)Man(a1-6)]Man(b1-4)GlcNAc(b1-4)[Fuc(a1-6)]GlcNAc
Summary of the method: as §1

[8] = biological target: Fuc(a1-2)Gal(b1-3)GlcNAc(b1-3)Gal(b1-4)Glc
Summary of the method: as §1

[9] = biological target: Fuc(a1-2)Gal(b1-3)GlcNAc(b1-3)GalNAc
Summary of the method: as §1

[10] = biological target: Fuc(a1-2)Gal(b1-3)GlcNAc(b1-3)[Fuc(a1-2)Gal(b1-3)GlcNAc(b1-6)]GalNAc
Summary of the method: as §1

[11] = biological target: Fuc(a1-2)Gal(b1-3)GlcNAc(b1-3)[Gal(b1-4)GlcNAc(b1-6)]Gal(b1-4)Glc
Summary of the method: as §1

[12] = biological target: Fuc(a1-2)Gal(b1-3)GlcNAc(b1-3)[Neu5Ac(a2-6)Gal(b1-4)GlcNAc(b1-6)]Gal(b1-4)Glc
Summary of the method: as §1

[13] = biological target: Fuc(a1-2)Gal(b1-3)GlcNAc6S
Summary of the method: as §1

[14] = biological target: Fuc(a1-2)Gal(b1-3)[Fuc(a1-4)]GlcNAc
Summary of the method: as §1

[15] = biological target: Fuc(a1-2)Gal(b1-3)[Fuc(a1-4)]GlcNAc(b1-2)Man(a1-3)[Fuc(a1-2)Gal(b1-3)[Fuc(a1-4)]GlcNAc(b1-2)Man(a1-3)]Man(b1-4)GlcNAc(b1-4)GlcNAc
Summary of the method: as §1

[16] = biological target: Fuc(a1-2)Gal(b1-3)[Fuc(a1-4)]GlcNAc(b1-2)Man(a1-3)[Fuc(a1-2)Gal(b1-3)[Fuc(a1-4)]GlcNAc(b1-2)Man(a1-6)]Man(b1-4)GlcNAc(b1-4)[Fuc(a1-6)]GlcNAc(b1-4)[Fuc(a1-6)]GlcNAc
Summary of the method: as §1

[17] = biological target: Fuc(a1-2)Gal(b1-3)[Fuc(a1-4)]GlcNAc(b1-3)[Fuc(a1-3)[Gal(b1-4)]GlcNAc(b1-6)]Gal(b1-4)Glc
Summary of the method: as §1

[18] = biological target: Fuc(a1-2)Gal(b1-3)[Fuc(a1-4)]GlcNAc(b1-3)[Gal(b1-4)GlcNAc(b1-6)]Gal(b1-4)Glc
Summary of the method: as §1

Fuc(a1-2)Gal(b1-4)Glc = biological target: Fuc(a1-2)Gal(b1-4)Glc
Summary of the method: as §1

Fuc(a1-2)Gal(b1-4)Glc6S = biological target: Fuc(a1-2)Gal(b1-4)Glc6S
Summary of the method: as §1

Fuc(a1-2)Gal(b1-4)GlcNAc = biological target: Fuc(a1-2)Gal(b1-4)GlcNAc
Summary of the method: as §1

[19] = biological target: Fuc(a1-2)Gal(b1-4)GlcNAc(b1-2)Man
Summary of the method: as §1

[20] = biological target: Fuc(a1-2)Gal(b1-4)GlcNAc(b1-2)Man(a1-3)[Fuc(a1-2)Gal(b1-4)GlcNAc(b1-2)Man(a1-6)]Man(b1-4)GlcNAc(b1-4)GlcNAc
Summary of the method: as §1

[21] = biological target: Fuc(a1-2)Gal(b1-4)GlcNAc(b1-2)Man(a1-3)[Fuc(a1-2)Gal(b1-4)GlcNAc(b1-2)Man(a1-6)]Man(b1-4)GlcNAc(b1-4)[Fuc(a1-6)]GlcNAc
Summary of the method: as §1

[22] = biological target: Fuc(a1-2)Gal(b1-4)GlcNAc(b1-2)[Fuc(a1-2)Gal(b1-4)GlcNAc(b1-4)]Man(a1-3)[Fuc(a1-2)Gal(b1-4)GlcNAc(b1-2)Man(a1-6)]Man(b1-4)GlcNAc(b1-4)GlcNAc
Summary of the method: as §1

[23] = biological target: Fuc(a1-2)Gal(b1-4)GlcNAc(b1-3)Gal(b1-4)GlcNAc
Summary of the method: as §1

[24] = biological target: Fuc(a1-2)Gal(b1-4)GlcNAc(b1-3)Gal(b1-4)GlcNAc(b1-2)Man(a1-3)[Fuc(a1-2)Gal(b1-4)GlcNAc(b1-3)Gal(b1-4)GlcNAc(b1-2)Man(a1-6)]Man(b1-4)GlcNAc(b1-4)GlcNAc
Summary of the method: as §1

B1: Cohesin-hDC-ASGPR (Homo sapiens) (protein)
chain: LDDLDAVRIKVDTVNAKPGDTVRIPVRFSGIPSKGIANCDFVYSYDPNVLEIIEIEPGDIIVDPNPDKSFDTAVYPDRKIIVFLFAEDSGTGAYAITKDGVFATIVAKVKEGAPNGLSVIKFVEVGGFANNDLVEQKTQFFDGGANVGDTTEPATPTTPVTTPTTTDDLDAASQNSKFQRDLVTLRTDFSNFTSNTVAEIQALTSQGSSLEETIASLKAEVEGFKQERQAGVSELQEHTTQKAHLGHCPHCPSVCVPVHSEMLLRVQQLVQDLKKLTCQVATLNNNASTEGTCCPVNWVEHQDSCYWFSHSGMSWAEAEKYCQLKNAHLVVINSREEQNFVQKYLGSAYTWMGLSDPEGAWKWVDGTDYATGFQNWKPGQPDDWQGHGLGGGEDCAHFHPDGRWNDDVCQRPYHWVCEAGLGQTSQESHHHHHH
- glycan array binding signal (z-score) (Fuc(a1-2)Gal): -0.306
- glycan array binding signal (z-score) (Fuc(a1-2)Gal(b1-3)GalNAc): -0.496
- glycan array binding signal (z-score) [1]: -0.508
- glycan array binding signal (z-score) [2]: -0.457
- glycan array binding signal (z-score) [3]: 0.094
- glycan array binding signal (z-score) [4]: -0.381
- glycan array binding signal (z-score) [5]: 0.855
- glycan array binding signal (z-score) (Fuc(a1-2)Gal(b1-3)GlcNAc): -0.412
- glycan array binding signal (z-score) [6]: -0.221
- glycan array binding signal (z-score) [7]: 0.018
- glycan array binding signal (z-score) [8]: -0.503
- glycan array binding signal (z-score) [9]: -0.391
- glycan array binding signal (z-score) [10]: -0.465
- glycan array binding signal (z-score) [11]: -0.38
- glycan array binding signal (z-score) [12]: -0.398
- glycan array binding signal (z-score) [13]: 0.912
- glycan array binding signal (z-score) [14]: -0.434
- glycan array binding signal (z-score) [15]: -0.173
- glycan array binding signal (z-score) [16]: -0.214
- glycan array binding signal (z-score) [17]: -0.508
- glycan array binding signal (z-score) [18]: -0.454
- glycan array binding signal (z-score) (Fuc(a1-2)Gal(b1-4)Glc): -0.252
- glycan array binding signal (z-score) (Fuc(a1-2)Gal(b1-4)Glc6S): -0.472
- glycan array binding signal (z-score) (Fuc(a1-2)Gal(b1-4)GlcNAc): -0.256
- glycan array binding signal (z-score) [19]: -0.43
- glycan array binding signal (z-score) [20]: -0.377
- glycan array binding signal (z-score) [21]: 0.562
- glycan array binding signal (z-score) [22]: -0.291
- glycan array binding signal (z-score) [23]: -0.306
- glycan array binding signal (z-score) [24]: 0.227
